# Source: the supplement of paper PMC8728848
# This is one part of the list.
# B1: Epa3 (Candida glabrata), Q6VBI8_CANGB (protein)
# chain: MGSSHHHHHHSSGLVPRGSHMNDLGFSLFEKRELSSQNPFGYPIGCSPQDVAIIPGLTMELYSYPIVSGTPPNCYDASYVDPEYPRTGYLKRKMVGKSTGVTGNLNYKYSVEKACMVKYGNLPAGYNYNEPLTVSNFTMILYGYFKAQTTGLHTFFVNADDLLYINFGAGNAFDCCKREDSKTKLGEYVAYDIWHVDSSKNKVSLFLEKDLYYPIRMFFNNIGKDSSLDLSFSVNGATDQISDFSGYLYSVPDQPDTCPAHIGYDTTCR
# Columns and labels:
# Experiment in all cases: glycan array binding signal (z-score within array); higher = stronger binding
# Settings in all cases: glycan notation: IUPAC condensed, linker removed
# [1] = target: Gal(b1-3)GlcNAc(b1-6)GalNAc
# Method in brief: (§1)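 Columns mapping to the same glycan were averaged after glycan names were converted to IUPAC-condensed notation. The data come from 3228 arrays in the Consortium for Functional Glycomics database, limited to those with an available protein sequence. Binding is reported as a within-array Z-score averaged across arrays of one protein sequence and across linkers.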
# [2] = target: Gal(b1-3)GlcNAc(b1-6)[Gal(b1-3)]GalNAc
# Method in brief: as §1
# Gal(b1-3)GlcNAc6S = target: Gal(b1-3)GlcNAc6S
# Method in brief: as §1
# [3] = target: Gal(b1-3)[Fuc(a1-4)]GlcNAc
# Method in brief: as §1
# [4] = target: Gal(b1-3)[Fuc(a1-4)]GlcNAc(b1-2)Man
# Method in brief: as §1
# [5] = target: Gal(b1-3)[Fuc(a1-4)]GlcNAc(b1-2)Man(a1-3)[Gal(b1-3)[Fuc(a1-4)]GlcNAc(b1-2)Man(a1-6)]Man(b1-4)GlcNAc(b1-4)[Fuc(a1-6)]GlcNAc
# Method in brief: as §1
# [6] = target: Gal(b1-3)[Fuc(a1-4)]GlcNAc(b1-3)Gal(b1-3)[Fuc(a1-4)]GlcNAc
# Method in brief: as §1
# [7] = target: Gal(b1-3)[Fuc(a1-4)]GlcNAc(b1-3)Gal(b1-4)[Fuc(a1-3)]GlcNAc
# Method in brief: as §1
# [8] = target: Gal(b1-3)[Fuc(a1-4)]GlcNAc(b1-6)GalNAc
# Method in brief: as §1
# [9] = target: Gal(b1-3)[GlcNAc(b1-6)]GalNAc
# Method in brief: as §1
# [10] = target: Gal(b1-3)[Neu5Ac(a2-6)]GalNAc
# Method in brief: as §1
# [11] = target: Gal(b1-3)[Neu5Ac(a2-6)]GlcNAc(b1-4)Gal(b1-4)Glc
# Method in brief: as §1
# [12] = target: Gal(b1-3)[Neu5Ac(b2-6)]GalNAc
# Method in brief: as §1
# Gal(b1-4)Gal = target: Gal(b1-4)Gal
# Method in brief: as §1
# [13] = target: Gal(b1-4)GalNAc(a1-3)[Fuc(a1-2)]Gal(b1-4)GlcNAc
# Method in brief: as §1
# [14] = target: Gal(b1-4)GalNAc(b1-3)[Fuc(a1-2)]Gal(b1-4)GlcNAc
# Method in brief: as §1
# Gal(b1-4)Glc = target: Gal(b1-4)Glc
# Method in brief: as §1
# Gal(b1-4)Glc6S = target: Gal(b1-4)Glc6S
# Method in brief: as §1
# Gal(b1-4)GlcNAc = target: Gal(b1-4)GlcNAc
# Method in brief: as §1
# [15] = target: Gal(b1-4)GlcNAc(a1-6)Gal(b1-4)GlcNAc
# Method in brief: as §1
# Gal(b1-4)GlcNAc(b1-2)Man = target: Gal(b1-4)GlcNAc(b1-2)Man
# Method in brief: as §1
# [16] = target: Gal(b1-4)GlcNAc(b1-2)Man(a1-3)Man(b1-4)GlcNAc(b1-4)GlcNAc
# Method in brief: as §1
# [17] = target: Gal(b1-4)GlcNAc(b1-2)Man(a1-3)[Gal(b1-4)GlcNAc(b1-2)Man(a1-6)]Man(b1-4)GlcNAc(b1-4)GlcNAc
# Method in brief: as §1
# [18] = target: Gal(b1-4)GlcNAc(b1-2)Man(a1-3)[Gal(b1-4)GlcNAc(b1-2)Man(a1-6)]Man(b1-4)GlcNAc(b1-4)[Fuc(a1-6)]GlcNAc
# Method in brief: as §1
# [19] = target: Gal(b1-4)GlcNAc(b1-2)Man(a1-3)[Gal(b1-4)GlcNAc(b1-2)Man(a1-6)][Gal(b1-4)GlcNAc(b1-4)]Man(b1-4)GlcNAc(b1-4)[Fuc(a1-6)]GlcNAc
# Method in brief: as §1
# [20] = target: Gal(b1-4)GlcNAc(b1-2)Man(a1-3)[Gal(b1-4)GlcNAc(b1-2)Man(a1-6)][GlcNAc(b1-4)]Man(b1-4)GlcNAc(b1-4)[Fuc(a1-6)]GlcNAc
# Method in brief: as §1
# [21] = target: Gal(b1-4)GlcNAc(b1-2)Man(a1-3)[GlcNAc(b1-2)Man(a1-6)]Man(b1-4)GlcNAc(b1-4)GlcNAc
# Method in brief: as §1
# [22] = target: Gal(b1-4)GlcNAc(b1-2)Man(a1-3)[GlcNAc(b1-4)][Gal(b1-4)GlcNAc(b1-2)Man(a1-6)]Man(b1-4)GlcNAc(b1-4)GlcNAc
# Method in brief: as §1
# [23] = target: Gal(b1-4)GlcNAc(b1-2)Man(a1-3)[Man(a1-6)]Man(b1-4)GlcNAc(b1-4)GlcNAc
# Method in brief: as §1
# [24] = target: Gal(b1-4)GlcNAc(b1-2)Man(a1-6)Man(b1-4)GlcNAc(b1-4)GlcNAc
# Method in brief: as §1
# [25] = target: Gal(b1-4)GlcNAc(b1-2)Man(a1-6)[GlcNAc(b1-2)Man(a1-3)]Man(b1-4)GlcNAc(b1-4)GlcNAc
# Method in brief: as §1
# [26] = target: Gal(b1-4)GlcNAc(b1-2)Man(a1-6)[Man(a1-3)]Man(b1-4)GlcNAc(b1-4)GlcNAc
# Method in brief: as §1
# [27] = target: Gal(b1-4)GlcNAc(b1-2)[Gal(b1-4)GlcNAc(b1-4)]Man(a1-3)[Gal(b1-4)GlcNAc(b1-2)Man(a1-6)]Man(b1-4)GlcNAc(b1-4)GlcNAc
# Method in brief: as §1
# [28] = target: Gal(b1-4)GlcNAc(b1-2)[Gal(b1-4)GlcNAc(b1-4)]Man(a1-3)[Gal(b1-4)GlcNAc(b1-2)[Gal(b1-4)GlcNAc(b1-6)]Man(a1-6)]Man(b1-4)GlcNAc(b1-4)GlcNAc
# Method in brief: as §1
# [29] = target: Gal(b1-4)GlcNAc(b1-2)[Gal(b1-4)GlcNAc(b1-4)]Man(a1-3)[GlcNAc(b1-4)][Gal(b1-4)GlcNAc(b1-2)Man(a1-6)]Man(b1-4)GlcNAc(b1-4)GlcNAc
# Method in brief: as §1
# [30] = target: Gal(b1-4)GlcNAc(b1-2)[Gal(b1-4)GlcNAc(b1-4)]Man(a1-3)[GlcNAc(b1-4)][Gal(b1-4)GlcNAc(b1-2)[Gal(b1-4)GlcNAc(b1-6)]Man(a1-6)]Man(b1-4)GlcNAc(b1-4)GlcNAc
# Method in brief: as §1
# [31] = target: Gal(b1-4)GlcNAc(b1-2)[Gal(b1-4)GlcNAc(b1-6)]Man(a1-6)[Gal(b1-4)GlcNAc(b1-2)Man(a1-3)]Man(b1-4)GlcNAc(b1-4)GlcNAc
# Method in brief: as §1
binder,measurement,setting,value
B1,glycan array binding signal (z-score),[1],-0.218
same,glycan array binding signal (z-score),[2],0.827
same,glycan array binding signal (z-score),Gal(b1-3)GlcNAc6S,-0.031
same,glycan array binding signal (z-score),[3],-0.142
same,glycan array binding signal (z-score),[4],0.116
same,glycan array binding signal (z-score),[5],-0.075
same,glycan array binding signal (z-score),[6],0.041
same,glycan array binding signal (z-score),[7],0.048
same,glycan array binding signal (z-score),[8],0.117
same,glycan array binding signal (z-score),[9],1.24
same,glycan array binding signal (z-score),[10],4.98
same,glycan array binding signal (z-score),[11],-0.353
same,glycan array binding signal (z-score),[12],0.622
same,glycan array binding signal (z-score),Gal(b1-4)Gal,-0.223
same,glycan array binding signal (z-score),[13],-0.136
same,glycan array binding signal (z-score),[14],-0.192
same,glycan array binding signal (z-score),Gal(b1-4)Glc,-0.298
same,glycan array binding signal (z-score),Gal(b1-4)Glc6S,-0.307
same,glycan array binding signal (z-score),Gal(b1-4)GlcNAc,-0.097
same,glycan array binding signal (z-score),[15],-0.36
same,glycan array binding signal (z-score),Gal(b1-4)GlcNAc(b1-2)Man,-0.235
same,glycan array binding signal (z-score),[16],-0.379
same,glycan array binding signal (z-score),[17],-0.306
same,glycan array binding signal (z-score),[18],0.052
same,glycan array binding signal (z-score),[19],-0.208
same,glycan array binding signal (z-score),[20],-0.401
same,glycan array binding signal (z-score),[21],-0.233
same,glycan array binding signal (z-score),[22],-0.319
same,glycan array binding signal (z-score),[23],-0.113
same,glycan array binding signal (z-score),[24],-0.327
same,glycan array binding signal (z-score),[25],-0.343
same,glycan array binding signal (z-score),[26],-0.091
same,glycan array binding signal (z-score),[27],-0.26
same,glycan array binding signal (z-score),[28],-0.301
same,glycan array binding signal (z-score),[29],-0.437
same,glycan array binding signal (z-score),[30],-0.286
same,glycan array binding signal (z-score),[31],-0.067
